Z-score data for 110 molecules are collected here from PubChem BioAssay AID488969 (Vanderbilt High Throughput Screening Facility, 2010).

SMILES strings stand for the structures. Over roughly 110,000 compounds, “z-score” has its median near -0.1; the highest 2% begin near 2. The list shows a part of the results. The source made the active and inactive calls.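 The calls were made as follows: active = z-score in the third read window above 3 or below -3; inactive = the rest.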

The target in the assay is Metabotropic glutamate receptor 8 (Rattus norvegicus) (UniProt P70579). Description: rat mGluR8 modulators via GIRK flux, primary screen, cell-based, thallium flux, HTS (AID 488969). To be noted: HEK293 rat mGluR8, GIRK (G protein-gated inwardly rectifying potassium channel) thallium flux, FluoZin2; at 10 µM; stronger effect = higher value; submaximal glutamate (EC20) added with thallium.
Sequence of UniProt P70579 (P70579 whole entry, looked up): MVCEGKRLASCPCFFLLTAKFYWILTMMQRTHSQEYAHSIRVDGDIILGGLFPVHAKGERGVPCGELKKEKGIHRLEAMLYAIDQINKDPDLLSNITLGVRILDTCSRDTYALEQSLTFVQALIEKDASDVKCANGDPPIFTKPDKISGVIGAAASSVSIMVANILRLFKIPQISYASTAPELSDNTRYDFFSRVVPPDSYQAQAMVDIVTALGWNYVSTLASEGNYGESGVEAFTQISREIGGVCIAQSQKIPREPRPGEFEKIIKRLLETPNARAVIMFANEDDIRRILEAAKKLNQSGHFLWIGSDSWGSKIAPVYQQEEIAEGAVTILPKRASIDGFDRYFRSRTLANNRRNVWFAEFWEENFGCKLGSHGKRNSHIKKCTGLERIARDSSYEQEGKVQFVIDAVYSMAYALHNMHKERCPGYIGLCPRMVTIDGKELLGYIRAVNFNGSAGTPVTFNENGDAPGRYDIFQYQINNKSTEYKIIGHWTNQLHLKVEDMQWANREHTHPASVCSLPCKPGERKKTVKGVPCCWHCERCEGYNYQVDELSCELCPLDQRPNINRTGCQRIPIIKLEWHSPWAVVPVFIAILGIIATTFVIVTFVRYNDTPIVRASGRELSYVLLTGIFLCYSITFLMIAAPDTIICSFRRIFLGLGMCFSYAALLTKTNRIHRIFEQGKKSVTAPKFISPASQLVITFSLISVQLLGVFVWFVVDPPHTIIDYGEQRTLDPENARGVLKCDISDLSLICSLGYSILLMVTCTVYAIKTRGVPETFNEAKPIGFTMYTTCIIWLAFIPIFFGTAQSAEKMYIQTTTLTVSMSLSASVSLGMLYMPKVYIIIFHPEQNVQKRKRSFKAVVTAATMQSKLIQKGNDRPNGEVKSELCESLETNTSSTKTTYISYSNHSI
In the case of `CCOc1cc(/C=C2\SC(=O)N=C2N)ccc1O`, the z-score is -0.108.

Consider `CC1CC(C)CN(C(=O)c2cn(C)c3ccc(S(=O)(=O)N(C)C)cc3c2=O)C1` (stereo not given), for which the z-score is -0.0944.

Take `CC(C)NC(=O)c1onc(CSc2cccc(F)c2)c1C(=O)O`: the z-score is -0.127.

`Cc1cc(NC(=O)c2cccc(S(=O)(=O)N3CCCC3)c2)no1` returned a z-score of 0.0735.

For `CSC1=NSC2=NC(=O)/C(=C/c3coc4ccccc4c3=O)C(=N)N12`, the z-score is active: 10.4.

In the case of `O=C1CC(O)(C(F)F)Oc2ccc3ccccc3c21` (stereo not given), the z-score worked out at 0.416.

In turn, `CCCOc1ccc(CNC(=O)Cn2c(=O)oc3ccccc32)cc1` yielded a z-score of -0.588.

Consider `O=C(O)CSc1ccccc1C(=O)O`, for which the z-score was -0.242.

`Cc1cccc(Cn2c(N(C)CCO)nc3c2c(=O)[nH]c(=O)n3C)c1` returned a z-score of -0.225.

Molecule `O=S(NCc1ccccc1)C12CC3CC(CC(C3)C1)C2` (stereo not given) showed a z-score of 0.0757.

On to `CCOC(=O)N1CCC(N2C(=O)c3ccccc3C2Nc2c(C)cccc2C)CC1` (stereo not given), for which the z-score is -0.177.

`C=CCN(c1ccc(C(N)=O)cc1)S(C)(=O)=O` came in with a z-score of -0.156.

Consider `CCC(C)(C)NC(=O)C(c1ccccc1)N(C(=O)c1csnn1)C1CC1` (stereo not given), for which the z-score amounted to 0.663.

As to `CN(CC(=O)Nc1ccc(F)cc1)C(=O)COc1ccc(C(=O)c2ccccc2)cc1`, the z-score worked out at 0.555.

In turn, `CN=c1scc(-c2cccs2)n1/N=C/c1ccccc1O` yielded a z-score of 0.0374.

In the case of `C=C(C)C1CC=C(C)/C(=N/NC(=O)COc2ccccc2Cl)C1` (stereo not given), the z-score was active: 12.4.

For `CNC(=S)N(Cc1ccco1)Cc1cc2cc3c(cc2[nH]c1=O)OCCO3`, the z-score turned out to be 0.0341.

In turn, `CC1CCC(C(C)C)C2=C1C(C#N)(C#N)C(C#N)(C#N)C(c1ccccc1)N2` (stereo not given) yielded a z-score of -0.206.

In the case of `Cc1ccc(C2(CCNS(=O)(=O)c3ccc(C)cc3)CCOC(C(C)C)C2)cc1` (stereo not given), the z-score was -0.0103.

As to `O=C(/C=C/c1cccc([N+](=O)[O-])c1)NCc1ccco1`, the z-score is -0.205.

Take `C=CCn1c(COc2cccc(C)c2)nnc1SCn1nnc2ccccc2c1=O`: the z-score was -0.197.

`O=C(N/N=C/c1c[nH]c2ccccc12)c1cc(-c2ccc3ccccc3c2)n[nH]1` displayed a z-score of 0.114.

In turn, `CCCNC(=S)N1CCN(CC)CC1` gave a z-score of 0.0876.

`CC(NC(=O)C1CCCCC1)C(=O)NC1=NCCS1` (stereo not given) returned a z-score of 0.00509.

Regarding `CC(C)(C)c1nnc(NC(=O)CN2C(=O)C3C4C=CC(C4)C3C2=O)s1` (stereo not given), the z-score is -0.271.

Regarding `CCn1c(SCC(=O)N2CCC(C(N)=O)(N3CCCCC3)CC2)nc2ccccc2c1=O`, the z-score was -1.2.

`O=C(CN(c1ccccn1)S(=O)(=O)c1ccccc1)N/N=C/c1cccc([N+](=O)[O-])c1` showed a z-score of -0.26.

For `CCCCn1nc2cc(C(=O)NCCc3cccs3)ccc2c1OCC`, the z-score was -0.71.

Turning to `CCN(CC)S(=O)(=O)c1ccc(C(=O)NCc2n[nH]c(=S)n2-c2ccccc2OC)cc1`, the z-score was -0.0139.

`COc1ccc(NS(=O)(=O)c2ccc(SC)cc2)c(OC)c1` showed a z-score of 0.216.

`CCc1[nH]nc2c1C1(CCN(C(=O)OCc3ccccc3)CC1)C(C#N)=C(N)O2` registered a z-score of -0.249.

Take `COc1ccc(C(=O)c2nc3c(n2O)CCCCC3)cc1`: the z-score is -0.0919.

On to `COc1ccccc1CCNC(=O)c1ccoc1C`, for which the z-score came out at 0.238.

`COC(=O)Cn1c2[n+](c3ccccc31)CC(O)CS2` (stereo not given): the z-score is -0.0277.

Consider `COc1ccc(S(=O)(=O)N2CCC(CN3C(=O)c4cccc5cccc(c45)C3=O)CC2)cc1`, for which the z-score was -0.138.

`CCn1cc(CNC(=O)c2cc(-c3cc(OC)ccc3OC)nc3ccccc23)c(C)n1` returned a z-score of -0.258.

Molecule `O=C(/C=C/c1ccccc1Cl)Nc1ccncc1` had a z-score of -0.162.

Molecule `COc1ccc(S(=O)(=O)N2CCN(C(=O)NCc3ccccc3)CC2)cc1` returned a z-score of -0.0685.

Take `COc1ccc(N(CC(=O)N2CCN(c3ccccc3)CC2)S(=O)(=O)c2c(C)noc2C)cc1`: the z-score is -0.151.

In turn, `O=C(Cn1nc(C(F)F)cc1C1CC1)NCCC1=CCCCC1` gave a z-score of 0.00364.

Turning to `COc1cc(/C=N/N=C(/C(=O)c2ccccc2)c2ccccc2)cc(OC)c1O`, the z-score was -0.457.

The molecule `O=c1cc(CO)oc(C(Nc2ccccn2)c2cccc(F)c2)c1O` (stereo not given) came in with a z-score of -0.241.

On to `CCn1c(SCC(=O)NCc2ccccc2)nnc1-c1ccccc1O`, for which the z-score is 0.0869.

With `Nc1cc(Cl)ccc1C(=O)OCC(=O)NC(=O)NCc1ccccc1`, the z-score was -0.236.

`O=C1c2ccccc2C(=O)N1CCCSc1nc2ccccc2o1`: the z-score came out at 0.00917.

Molecule `CC1=NN(c2ccccc2)C(=O)/C1=C/c1ccc[nH]1` registered a z-score of -0.279.

`O=C(CSc1nnc(CN2CCOCC2)n1-c1ccccc1)Nc1ccc(Cl)cc1` gave a z-score of -0.936.

As for `CCOc1ccc(C(=O)NCC(=O)OCc2ccc(F)cc2Cl)cc1`, the z-score was -0.0774.

`CCn1c(SCC(=O)O)nc2sc3c(c2c1=O)CCC3` returned a z-score of -1.62.

Take `Cc1ccc(N=C2SC(C(=O)Nc3ccc(OC(F)(F)F)cc3)C(N)=C2C(=O)Nc2c(C)cc(C)cc2C)cc1` (stereo not given): the z-score worked out at 0.572.

For `Cc1cc2c(cc1C)CSC(c1ccc(O)cc1)SC2`, the z-score is -0.639.

As to `CC1CCCN(C(=O)C(Cc2ccccc2)n2cccc2)C1` (stereo not given), the z-score was -0.166.

Regarding `Cc1ccc(C(=O)NCC(=O)NCC(=O)OCC(=O)c2ccc(Br)cc2)cc1`, the z-score came to 0.0108.

Turning to `CCc1ccccc1N1CC23C=CC(O2)C(C(=O)OCC(C)C)C3C1=O` (stereo not given), the z-score was -0.106.

Molecule `CCc1nnc(NC(=O)CSc2nnc(-c3cccnc3)n2CC)s1` yielded a z-score of -0.491.

The molecule `Cc1[nH]n2c(=O)c(C#N)c(-c3ccccc3)nc2c1-c1ccccc1` yielded a z-score of -0.136.

`CCc1nc2oc3cc(OC)ccc3c(=O)c2c(=O)n1-c1ccccc1` registered a z-score of 0.0834.

Molecule `NC(=O)c1sc2cc(C(F)(F)F)cnc2c1-c1cccs1` showed a z-score of -0.135.

With `CCOc1ccc(/C=N/n2c(SC)nnc(C(C)(C)C)c2=O)cc1`, the z-score stood at 0.151.

`CCC(c1nnnn1CCc1ccccc1)N1CCN(c2ccc(OC)cc2)CC1` (stereo not given) had a z-score of -0.0951.

`O=C(NCCN1CCc2ccccc2C1)C1CCN(S(=O)(=O)N2CCCCC2)CC1` came in with a z-score of 0.147.

The molecule `Cc1cc2oc(=O)cc(COC(=O)c3n[nH]c4ccccc34)c2cc1C` had a z-score of -0.06.

Turning to `CC(=O)c1cccc(NC(=O)/C(=C\c2ccco2)NC(=O)c2cccs2)c1`, the z-score amounted to 0.0614.

In the case of `CCOc1cc(/C=N/NC(=O)CN2CCOCC2)ccc1OCc1ccc(Cl)cc1`, the z-score was -0.0847.

For the molecule `CCOc1ccc(N2CC(C(=O)NCCc3ccc(OC)c(OC)c3)CC2=O)cc1` (stereo not given), the z-score is -1.78.

Consider `COCCOC(=O)C(C#N)c1nc2ccccc2nc1N1CCCC1` (stereo not given), for which the z-score was -0.268.

`COc1ccc(NC(=O)Cn2c(=O)n(CC(=O)NCc3ccco3)c(=O)c3ccccc32)cc1` yielded a z-score of 0.213.

Molecule `Cc1c(C(=O)NC(C)CCc2ccccc2)cccc1[N+](=O)[O-]` (stereo not given) came in with a z-score of -0.112.

Molecule `COCCNc1nnc(SCC(=O)c2ccc3c(c2)OCO3)s1` returned a z-score of -0.106.

On to `C=C(C)COc1ccc(-c2n[nH]c(C)c2-c2ccc(OC)cc2)c(O)c1`, for which the z-score worked out at 0.0936.

As for `O=C(O)c1ccc2c(c1)N(Cc1cccc(F)c1)C(=O)CS2`, the z-score is -0.288.

Molecule `Cc1ccc(-c2nc(CS(=O)CC(=O)NCc3ccccn3)c(C)o2)cc1` (stereo not given) gave a z-score of -0.248.

`Cc1cc2c(C)ccc(C)c2nc1SCC(=O)c1cccs1`: the z-score is -0.0764.

Turning to `O=C(Nc1ncccc1O)c1cccc(S(=O)(=O)N2CCc3ccccc32)c1`, the z-score was 1.16.

Turning to `O=C(COc1ccc(Cl)cc1)N/N=C/CCc1ccccc1`, the z-score was -0.494.

For the molecule `COCCn1c(N)c(C(=O)Nc2sc3c(c2C(=O)OC)CCCC3)c2nc3ccccc3nc21`, the z-score turned out to be 0.711.

For the molecule `Cn1ccnc1C(=O)c1cccc([N+](=O)[O-])c1`, the z-score was found to be 0.0533.

With `O=C(N/N=C/c1cccs1)c1cc(C2CC2)nc2ccccc12`, the z-score turned out to be 1.02.

`CC(C)N1CC(C(=O)Nc2ccc(Br)c(Cl)c2)CC1=O` (stereo not given) gave a z-score of 0.0942.

Take `Cc1ccc2nc(-c3ccc(NC(=O)Cc4cccs4)cc3)[nH]c2c1`: the z-score was -0.431.

Molecule `CCOc1cc(C(=O)Nc2ccc(N3CCN(S(C)(=O)=O)CC3)cc2)cc(OCC)c1OCC` registered a z-score of -0.182.

As to `c1ccc(-n2ncc3c2ncn2c(C4CCCCC4)nnc32)cc1`, the z-score was determined as 0.0535.

Regarding `Cc1c(NC(=O)CSc2ccccc2C(=O)Nc2cccnc2)c(=O)n(-c2ccccc2)n1C`, the z-score turned out to be 2.06.

`Cc1cc(C)c2[nH]c(=O)c(CN(Cc3ccco3)C(=O)c3cccs3)cc2c1` came in with a z-score of 1.44.

Take `N#Cc1ccsc1NC(=O)COC(=O)c1ccc2ccccc2c1`: the z-score was -0.182.

`CSc1ccccc1C(=O)Nc1ccc2c(c1)OCCO2` had a z-score of -0.715.

Turning to `COCCn1c(SCC(=O)c2ccccc2)nc2c(c1=O)SC(C)C2` (stereo not given), the z-score was -1.84.

The molecule `COc1ccc(Cc2nnc(NC(=O)CSc3ccccc3)s2)cc1` registered a z-score of -0.0797.

`CC(C)NCCOc1cccc(Br)c1` had a z-score of 0.152.

Turning to `COc1ccc(NC2=CC(=O)CC(C)(C)C2)cc1OC`, the z-score was determined as 0.0586.

In turn, `Nn1c(SC/C=C/c2ccccc2)nnc1-c1ccco1` had a z-score of -0.117.

In turn, `CCOc1ccc(C(=O)Nc2cccc(-c3cc4ccccc4oc3=O)c2)cc1[N+](=O)[O-]` showed a z-score of 0.048.

Molecule `Cc1ccc2cc(CN(C(=O)C3CCCO3)C3CCCCC3)c(=O)[nH]c2c1` (stereo not given) gave a z-score of 0.59.

Regarding `C=CCC(NCCCO)c1cccc(OC)c1OC` (stereo not given), the z-score is -0.0832.

In turn, `CCOP(=O)(c1ccc(N(C)C)cc1)C(O)c1c(Cl)cccc1Cl` (stereo not given) showed a z-score of 0.373.

In turn, `CC(/C=C/c1ccco1)=N\NC(=O)c1cccc(Cl)c1` returned a z-score of -1.27.

`CC(C)OC(=O)C1C(=O)CC(C)(O)C(C(=O)OC(C)C)C1c1ccc(F)cc1` (stereo not given) came in with a z-score of 0.157.

In turn, `COCCCNC(=O)C1CC(=O)N(CCc2ccc(OC)c(OC)c2)C1` (stereo not given) displayed a z-score of -0.12.

As to `CCC(C)NC(=O)COC(=O)c1csc2c1CCCC2` (stereo not given), the z-score is -0.0704.

Consider `O=C(Nc1ccccc1C(=O)O)c1cccc(F)c1`, for which the z-score is -0.262.

Turning to `Cc1oc(C(=O)Nc2ccc(C(=O)O)cc2)cc1COc1ccccc1`, the z-score is -0.176.

In turn, `Cc1cc(=O)n2c3ccccc3n(CC(O)CN3CCC(C)CC3)c2c1C#N` (stereo not given) came in with a z-score of -0.418.

`Cc1ccc(NS(=O)(=O)c2cccc(C(=O)O)c2)cc1S(=O)(=O)N1CCCCC1`: the z-score was -0.132.

The molecule `Cc1ccc(NC(=O)COc2ccccc2C(=O)Nc2ccccc2)cc1Cl` displayed a z-score of -0.245.

`O=C(O)c1ccc(CS(=O)(=O)c2cccc(C(F)(F)F)c2)o1` returned a z-score of -0.171.

`C=CCn1c(Cc2ccc(OC)cc2)nnc1SCC(N)=O` came in with a z-score of -0.215.

`CN1CCc2nc(NC(=O)c3cccc(S(=O)(=O)N4CCc5ccccc54)c3)sc2C1`: the z-score was 0.344.

As to `COc1cccc(NC(=O)CSc2nc(C)cs2)c1`, the z-score worked out at 0.237.

In the case of `S=C(Nc1ccc(Cl)cc1)N1CCCC1`, the z-score turned out to be 0.113.

For the molecule `O=C(NCc1ccco1)C1CCN(C(=O)Cc2ccccc2)CC1`, the z-score is -0.049.
